In PubChem BioAssay AID2451 (National Center for Advancing Translational Sciences (NCATS), 2010):
Out of some 290,000 compounds screened, about 2,100 (0.72%) were called active. This list was built around the results that the source calls inconclusive (neither active nor inactive); the mix of calls is not that of the screen. Calls come from the whole dose curve; as a rule, active = well fitted inhibition curve with a large enough effect; inconclusive = small, poorly fitted or top-dose-only effect, or effect the other way; inactive = flat fitted curve, though single readings scatter. Where the call is inconclusive, the potency comes from a doubtful curve fit.

biological target: Fructose-bisphosphate aldolase (Giardia intestinalis (strain ATCC 50803 / WB clone C6)) (UniProt A8B2U2); experiment: qHTS Assay for Inhibitors of Fructose-1,6-bisphosphate Aldolase from Giardia Lamblia; settings: purified Giardia FBPA; activity, negative = inhibition: at 59.6 µM (top of the series) unless noted; note: nearly all actives have a fitted effect of over 55% in size
How it was run: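 Giardia FBPA (40 nM reagent) was preincubated 10 min at RT with compound (up to 57.5 uM final), then substrate plus GAPDH/TPI/NAD/arsenate coupling system with diaphorase/resazurin was added; resorufin fluorescence (525/598 nm) was read after 20 min.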
% is set by controls: 0 for no effect and ±100 for the full control effect; potency is the fitted concentration of half-maximal effect; tags give direction and shape of the fitted curve.

Sequence of UniProt A8B2U2 (A8B2U2 whole entry, looked up): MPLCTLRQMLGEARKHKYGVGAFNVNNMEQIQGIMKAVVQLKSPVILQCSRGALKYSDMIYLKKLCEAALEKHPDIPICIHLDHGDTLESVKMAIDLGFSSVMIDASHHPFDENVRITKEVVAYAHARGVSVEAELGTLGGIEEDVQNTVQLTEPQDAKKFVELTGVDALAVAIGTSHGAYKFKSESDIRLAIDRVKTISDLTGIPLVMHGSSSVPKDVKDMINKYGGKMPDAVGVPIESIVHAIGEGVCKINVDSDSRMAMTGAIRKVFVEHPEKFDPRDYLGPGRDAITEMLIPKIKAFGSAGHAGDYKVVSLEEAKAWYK

Structure (SMILES)	activity, negative = inhibition	Potency
CCc1cc(=O)oc2c3c(cc(OCC(=O)NCCCOC)c12)OC(C)(C)CC3	inactive: -0.931%	–
CC(C)(C)OC(=O)[C@H](Cc1ccccc1)NC(=O)c1nc[nH]c1C(=O)N1CCN(C(=O)OC(C)(C)C)CC1	–	inconclusive: 31.6 µM [inhibitor, single point]
CCOc1ccc(N2C(=O)NC(=O)/C(=C\c3cc(OC)c(OC)cc3[N+](=O)[O-])C2=O)cc1	–	inconclusive: 0.354 µM [inhibitor, full curve]
COc1cc(C2C(C#N)=C(N)OC3=C2C(=O)CCC3)c([N+](=O)[O-])cc1OC (centres undefined)	–	inconclusive: 11.2 µM [inhibitor, partial curve]
Nc1ccc(Oc2ncccn2)cc1	–	inconclusive: 22.4 µM [inhibitor, partial curve]
CC(=O)Nc1nc(C)nc(-c2ccccc2)c1C(C)=O	–	active: 15.8 µM
CC(=O)Nc1ccc(S(=O)(=O)Nc2cc(C)cn(Cc3ccccc3)c2=O)cc1	–	inconclusive: 14.1 µM [inhibitor, single point]
O=[N+]([O-])c1ccc(NNC(=S)Nc2ccc(F)cc2)cc1	–	inconclusive: 3.54 µM [inhibitor, full curve, poor fit]
CC1CCC(N(C)C2CCN(C)CC2)CC1 (centres undefined)	–	inconclusive: 31.6 µM [inhibitor, partial curve]
CCOc1ccccc1NS(=O)(=O)c1cccc2nsnc12	–	inconclusive: 17.7 µM [inhibitor, single point]
C=CCN1CCN(C(=O)c2cc3c(s2)CCC(CC)C3)CC1 (centres undefined)	inactive: 7.83%	–
CCOc1ccc2[nH]c(=O)c(C(c3nnnn3Cc3ccco3)N3CCC(C)CC3)cc2c1 (centres undefined)	–	inconclusive: 7.08 µM [inhibitor, partial curve]
CCCCN1C(N)=NC[C@@H]1Cc1ccc(O)cc1	inactive: 2.91%	–
Cc1ccc(C)c(NC(=S)NCCc2c[nH]c3ccccc23)c1	inactive: 0.535%	–
Brc1ccc(/C=N/Nc2nncc(-c3ccccc3)n2)o1	inactive: 0.678%	–
Cc1ccc2oc(=O)c(/C=C(\O)CC(C)C)nc2c1	–	inconclusive: 14.1 µM [inhibitor, partial curve]
O=C(CCCN1CCOC(c2ccccc2)C1)c1ccc(F)cc1 (centres undefined)	–	inconclusive: 17.8 µM [inhibitor, single point]
Cc1cccc(CN2CCC(N3CC(C)OC(C)C3)CC2)c1 (centres undefined)	–	inconclusive: 28.2 µM [inhibitor, partial curve]
COc1ccc(O)c(C(=O)C2c3ccccc3C(=O)N2c2ccc(C)cc2)c1 (centres undefined)	–	inconclusive: 17.7 µM [inhibitor, single point]
C/C(=N\NC(=O)c1cc(-c2cccs2)nc2ccccc12)c1ccccn1	–	inconclusive: 17.7 µM [inhibitor, partial curve]
CCCS(=O)(=O)c1c(S(=O)(=O)CCC)c2c(N)cccn2c1C(=O)OC	–	inconclusive: 12.6 µM [inhibitor, partial curve]
COc1ccc([C@@H]2[C@H]3CN(C(C)=O)CC=C3C(C#N)=C(N)C2(C#N)C#N)c2ccccc12	–	inconclusive: 15.8 µM [inhibitor, single point]

Structure (SMILES)	activity, negative = inhibition	Potency
COC(=O)NC(=S)Nc1ccccc1NC(=S)NC(=O)OC	–	inconclusive: 15.8 µM [inhibitor, partial curve]
C[C@H](NC(=O)Nc1ccc2c(c1)OCCO2)C(=O)O	inconclusive: 38.1% [activator]	–
Cc1c(C(=O)NCc2ccc3c(c2)OCO3)oc2ccc(S(=O)(=O)N3CCC(C)CC3)cc12	inactive: 0.117%	–
S=C(S)O[C@@H]1C[C@@H]2C[C@H]1[C@@H]1CCC[C@H]21	–	inconclusive: 28.1 µM [activator, partial curve, poor fit]
COc1cc(/C=C/C(=O)C2C(=O)C=C(C)OC2=O)cc(OC)c1O (centres undefined)	–	inconclusive: 19.9 µM [inhibitor, partial curve]
COC1=C(Nc2ccccc2)C(=O)c2ccccc2C1=O	–	inconclusive: 9.98 µM [inhibitor, partial curve]
Cc1ccc(-c2cc(-c3ccccc3)c(C#N)c(N)n2)o1	–	inconclusive: 17.7 µM [inhibitor, partial curve]
CC1(OC(=O)CCc2ccccc2)C(=O)C=C2C=C(c3ccc(C#N)cc3)N(c3ccccc3)C=C2C1=O (centres undefined)	–	inconclusive: 4.46 µM [inhibitor, full curve, poor fit]
CC(C)(C)OC(=O)N1CC=C2C(C#N)=C(N)C(C#N)(C#N)[C@H](c3cccnc3)[C@H]2C1	–	inconclusive: 19.9 µM [inhibitor, partial curve]
c1ccc(-c2ccc(-c3ccccn3)nn2)nc1	–	inconclusive: 19.9 µM [inhibitor, single point]
CCc1ccc(-c2c(C)sc(NC(=O)C3CCC3)c2C#N)cc1	inactive: -4.32%	–
O=C(O)CSc1ncnc2sc(-c3ccccc3)cc12	–	inconclusive: 17.7 µM [activator, single point]
CCOC(=O)C1CCN(C(=O)c2c(C)oc3c2C(=O)c2ccccc2C3=O)CC1	–	inconclusive: 0.5 µM [inhibitor, full curve]
COc1ccc(NC(=O)C2CCCC2)cn1	inactive: -29.1%	–
Cc1c(NC(=S)NC(=O)c2cccc(Br)c2)c(=O)n(-c2ccccc2)n1C	–	inconclusive: 3.55 µM [inhibitor, full curve]
Cc1cc(NC(=O)c2cc(-c3ccc4c(c3)OCO4)on2)n(-c2ccccc2)n1	inactive: 12.1%	–
Cc1ccc(-c2csc(NC(=O)c3ccco3)n2)cc1C	inactive: 9.78%	–
COC(=O)c1cccc(NC(=O)CSc2nnc(-c3ccco3)o2)c1	inactive: 0.353%	–
Cc1ccc(NCC(=O)N/N=C/c2cc(O)ccc2[N+](=O)[O-])cc1	–	inconclusive: 15.8 µM [inhibitor, single point]
CC(C)C[C@H](NC(=O)N1CC(=O)Nc2ccccc21)C(=O)N[C@@H](Cc1ccccc1)C(=O)O	inactive: 10.9%	–
COC(=O)c1ccc(NC(=O)CN2CCN(c3ccccc3C)CC2)cc1	inactive: 1.58%	–
COC(=O)C(C)N1C(=O)S/C(=C\c2cc(C)n(-c3ccccn3)c2C)C1=O (centres undefined)	–	inconclusive: 15.8 µM [inhibitor, partial curve]
